Here are results for 41 compounds from ChEMBL document CHEMBL4888484, “Replenishing the malaria drug discovery pipeline: Screening and hit evaluation of the MMV Hit Generation Library 1 (HGL1) against asexual blood stage Plasmodium falciparum ,using a nano luciferase reporter read-out” (2022).

Among all 150,000 compounds or so, about 540 (0.36%) showed an effect of 50% or more. Some of the results follow.

The subject of the assay is Plasmodium falciparum. The experiment in a line: Primary screen in NF54 nanoGlo assay, in single point, at 2uM, 72h; a lower Z score goes with more inhibition. The note with it: timepoint 72 hour. The assay is classed as functional, Erythrocyte.
Consider `Cc1cc(C)cc(NC(=O)N2CCCn3nc(-c4cccn4C)cc32)c1`, for which the “% Inhibition” value amounted to 6% and the Z score is recorded as -0.75.

`O=C(NC[C@H]1CCCO1)Nc1snnc1-c1ccccc1`: the “% Inhibition” value is -12% and the Z score is on record as 1.62.

For `COc1c(F)ccc(F)c1C(=O)N[C@H]1CC(=O)N(C(C)C)C1=O`, the “% Inhibition” value was -5% and the Z score stood at 0.67.

`CCN(C)c1ccccc1CNS(=O)(=O)c1sccc1OC`: the “% Inhibition” value is given as -5% and the Z score is 0.46.

Regarding `CC(C)C[C@@]1(C(=O)O)C[C@H](C(=O)NCC(F)F)[C@H](c2cccnc2)N1C`, the “% Inhibition” value is recorded as 10% and the Z score is given as -0.95.

Regarding `COc1cc(CNS(=O)(=O)c2cccc(-c3nc(-c4ccc(C)cc4)no3)c2)cc(OC)c1OC`, the “% Inhibition” value is -1% and the Z score was 0.16.

Take `Cn1c(C(=O)N2CCN(c3cc(N4CCOCC4)ncn3)CC2)cccc1=O`: the “% Inhibition” value is 1% and the Z score is reported as -0.16.

As to `CCOC(=O)[C@H]1CCCN(C(=O)c2cc(-c3ccccc3OC)n3nc(C(C)(C)C)cc3n2)C1`, the “% Inhibition” value stood at 6% and the Z score is -0.78.

Regarding `CC[C@H](O)CN1CCOc2c(O)cc(-c3ccc(Cl)cn3)cc2C1`, the “% Inhibition” value was -9% and the Z score is given as 1.34.

As for `COCCOc1nc(-c2ccc3c(c2)OCO3)n(-c2ccc(NC(=O)c3ccc(OC)cc3)cc2)n1`, the “% Inhibition” value was -17% and the Z score was found to be 2.45.

As to `CCN(Cc1nc2ccccc2c(=O)[nH]1)C(=O)[C@H](C)c1c(C)noc1C`, the “% Inhibition” value is -1% and the Z score is 0.21.

With `CCN(Cc1noc(C)n1)C(=O)c1cc(CC(C)C)nc(N)n1`, the “% Inhibition” value is on record as -13% and the Z score was found to be 1.15.

`CCO[C@H]1COC[C@@H]1NC(=O)c1nc(C)c[nH]1`: the “% Inhibition” value is given as -7% and the Z score is on record as 0.7.

As for `O=C(c1ccc(S(=O)(=O)N2CCOCC2)cc1)N1CCCCC1`, the “% Inhibition” value was -8% and the Z score is 1.08.

As for `CC[C@H]1CCCCN1C(=O)COc1cc(C(F)(F)F)c2c(C)nn(C)c2n1`, the “% Inhibition” value is reported as -10% and the Z score was determined as 1.08.

As for `O=C(Nc1nc(C2CC2)cs1)N1CC(CN2C(=O)COC2=O)C1`, the “% Inhibition” value was determined as 9% and the Z score is -1.21.

For `Cn1c([C@@H]2CCCO2)nn(CC2CC2)c1=O`, the “% Inhibition” value was -15% and the Z score stood at 2.19.

For `COc1ccc(C(=O)NCC(C)C)cc1Cl`, the “% Inhibition” value is given as -14% and the Z score is listed as 1.95.

Regarding `Cc1cc([C@@H](C#N)c2ccc(Cl)cc2)c(Cl)cc1NC(=O)CCCOc1ccccc1`, the “% Inhibition” value is listed as -2% and the Z score is listed as 0.47.

Take `CCCNC(=O)N1CCC(N2CC3(CCCC3)[C@H]2c2ccccc2)CC1`: the “% Inhibition” value is on record as -7% and the Z score worked out at 1.05.

`NC(=O)c1ccc(C(=O)OC2CCCCCC2)cn1`: the “% Inhibition” value came out at 3% and the Z score was -0.42.

As for `CC(C)c1nc(Cn2cnccc2=O)no1`, the “% Inhibition” value came out at 1% and the Z score is -0.07.

Regarding `O=C(N1CCO[C@H](c2ccccc2)C1)C1(c2ccccc2)CCOCC1`, the “% Inhibition” value is on record as -7% and the Z score is on record as 0.91.

Take `CCc1noc(CC)c1CC(=O)N1C[C@H](OC)C[C@H]1c1nc(C)n[nH]1`: the “% Inhibition” value is on record as -12% and the Z score was determined as 1.67.

For `Cc1cccc(CN(Cc2ccccn2)C(=O)c2cc(C)no2)c1`, the “% Inhibition” value was -11% and the Z score is given as 1.37.

For the compound `OC[C@H]1CCCN(CCNc2nccc3cccnc23)C1`, the “% Inhibition” value is listed as -5% and the Z score is recorded as 0.82.

For the compound `CCN1C(=O)c2c(C(=O)NCCc3ccccc3)ncn2C[C@@]1(C)C(=O)NC1CCCC1`, the “% Inhibition” value was -6% and the Z score is recorded as 1.03.

In the case of `CCc1cc2c3c([nH]c2cc1S(=O)(=O)NCCN1CCCCCC1)CCCC3=O`, the “% Inhibition” value was -5% and the Z score was determined as 0.83.

In the case of `CCCn1ncc(C(=O)N(CCOC)CC2CC2)c1C`, the “% Inhibition” value is given as 2% and the Z score was -0.36.

With `O=C1CC[C@@]2(CCCN(C(=O)c3ncccc3O)C2)CN1Cc1cccnc1`, the “% Inhibition” value was -5% and the Z score is recorded as 0.71.

Take `O=C(CN1C(=O)CN(c2ccccc2)C1=O)Nc1cccc2ccccc12`: the “% Inhibition” value is listed as 1% and the Z score is -0.07.

For the compound `CN(C(=O)Nc1ccccc1OCc1ccccc1)[C@@H]1CCCC[C@@H]1O`, the “% Inhibition” value was -8% and the Z score came to 1.45.

With `O=C([C@@H]1C[C@@H]2OCC[C@@H]2N1C(=O)c1ccc(Oc2ccccc2)o1)N1CCCC1`, the “% Inhibition” value is given as 6% and the Z score is -0.87.

For `Cc1c(CC(=O)N[C@H]2CCOC2)c2c(n1CCc1ccccc1)CCCC2=O`, the “% Inhibition” value is reported as -6% and the Z score was determined as 1.07.

Take `C[C@H]1CCCN(C(=O)c2cnn3c(-c4cccnc4)ccnc23)CC1`: the “% Inhibition” value is -5% and the Z score amounted to 0.61.

On to `O=C(c1coc(COc2cccc(C(F)(F)F)c2)n1)N1CCC[C@H](CO)C1`, for which the “% Inhibition” value is on record as 0% and the Z score was -0.04.

With `O=C(Cc1ccc2[nH]c(=O)[nH]c2c1)N1CCOC[C@@H]1CC1CCC1`, the “% Inhibition” value amounted to 2% and the Z score is given as -0.19.

Take `O=C1CCC(=O)N1c1nc2n(n1)[C@H](c1ccccc1Cl)C=C(c1ccccc1)N2`: the “% Inhibition” value was -15% and the Z score is recorded as 1.64.

Regarding `Cc1nc2ccc(C(=O)N3C[C@@H]4c5ccccc5OC[C@]4(CO)C3)cc2o1`, the “% Inhibition” value is reported as 0% and the Z score is given as -0.05.

Consider `COc1ccc(C)cc1N[C@@H](C)C(N)=O`, for which the “% Inhibition” value turned out to be 16% and the Z score was -1.87.

Turning to `Cc1cc(C(=O)N2CC[C@](C)(O)[C@H](Cc3ccccc3)C2)[nH]n1`, the “% Inhibition” value is listed as -10% and the Z score is 1.05.
